PubChem BioAssay AID1347165 (National Center for Advancing Translational Sciences (NCATS), 2019)
Several values for one entry are separate records, joined by “and”; a condition that tells them apart may be missing. Identical values can stand only once. Out of some 220,000 compounds screened, about 5,700 (2.6%) were called active. The inconclusive results got no clear call from the source; some entries with a clear call stand among them for comparison. The call rests on the fitted dose curve; in most records, active means well fitted inhibition curve with a large enough effect; inconclusive means small, poorly fitted or top-dose-only effect; inactive means no such curve, though single readings can be large or run the other way. Potencies beside an inconclusive call are fits to weak or partial responses and may not hold up.
Further: nearly all actives have a fitted effect of over 70% in size.
Potency means the concentration at half of the fitted maximal effect; tags describe the fitted curve by direction and shape.
Wherever activity change, negative = inhibition is given: 0% is about no effect.

What follows are compounds tested against Lysine-specific demethylase 5B (Homo sapiens) (UniProt Q9UGL1) (assay: Primary screen for KDM5B Histone Demethylases FDH-coupled qHTS). Settings: FDH-coupled NADH fluorescence (FDH is formaldehyde dehydrogenase); activity change, negative = inhibition: at 57.7 µM (top of the series) unless noted.
Sequence of UniProt Q9UGL1 (Q9UGL1 whole entry, looked up): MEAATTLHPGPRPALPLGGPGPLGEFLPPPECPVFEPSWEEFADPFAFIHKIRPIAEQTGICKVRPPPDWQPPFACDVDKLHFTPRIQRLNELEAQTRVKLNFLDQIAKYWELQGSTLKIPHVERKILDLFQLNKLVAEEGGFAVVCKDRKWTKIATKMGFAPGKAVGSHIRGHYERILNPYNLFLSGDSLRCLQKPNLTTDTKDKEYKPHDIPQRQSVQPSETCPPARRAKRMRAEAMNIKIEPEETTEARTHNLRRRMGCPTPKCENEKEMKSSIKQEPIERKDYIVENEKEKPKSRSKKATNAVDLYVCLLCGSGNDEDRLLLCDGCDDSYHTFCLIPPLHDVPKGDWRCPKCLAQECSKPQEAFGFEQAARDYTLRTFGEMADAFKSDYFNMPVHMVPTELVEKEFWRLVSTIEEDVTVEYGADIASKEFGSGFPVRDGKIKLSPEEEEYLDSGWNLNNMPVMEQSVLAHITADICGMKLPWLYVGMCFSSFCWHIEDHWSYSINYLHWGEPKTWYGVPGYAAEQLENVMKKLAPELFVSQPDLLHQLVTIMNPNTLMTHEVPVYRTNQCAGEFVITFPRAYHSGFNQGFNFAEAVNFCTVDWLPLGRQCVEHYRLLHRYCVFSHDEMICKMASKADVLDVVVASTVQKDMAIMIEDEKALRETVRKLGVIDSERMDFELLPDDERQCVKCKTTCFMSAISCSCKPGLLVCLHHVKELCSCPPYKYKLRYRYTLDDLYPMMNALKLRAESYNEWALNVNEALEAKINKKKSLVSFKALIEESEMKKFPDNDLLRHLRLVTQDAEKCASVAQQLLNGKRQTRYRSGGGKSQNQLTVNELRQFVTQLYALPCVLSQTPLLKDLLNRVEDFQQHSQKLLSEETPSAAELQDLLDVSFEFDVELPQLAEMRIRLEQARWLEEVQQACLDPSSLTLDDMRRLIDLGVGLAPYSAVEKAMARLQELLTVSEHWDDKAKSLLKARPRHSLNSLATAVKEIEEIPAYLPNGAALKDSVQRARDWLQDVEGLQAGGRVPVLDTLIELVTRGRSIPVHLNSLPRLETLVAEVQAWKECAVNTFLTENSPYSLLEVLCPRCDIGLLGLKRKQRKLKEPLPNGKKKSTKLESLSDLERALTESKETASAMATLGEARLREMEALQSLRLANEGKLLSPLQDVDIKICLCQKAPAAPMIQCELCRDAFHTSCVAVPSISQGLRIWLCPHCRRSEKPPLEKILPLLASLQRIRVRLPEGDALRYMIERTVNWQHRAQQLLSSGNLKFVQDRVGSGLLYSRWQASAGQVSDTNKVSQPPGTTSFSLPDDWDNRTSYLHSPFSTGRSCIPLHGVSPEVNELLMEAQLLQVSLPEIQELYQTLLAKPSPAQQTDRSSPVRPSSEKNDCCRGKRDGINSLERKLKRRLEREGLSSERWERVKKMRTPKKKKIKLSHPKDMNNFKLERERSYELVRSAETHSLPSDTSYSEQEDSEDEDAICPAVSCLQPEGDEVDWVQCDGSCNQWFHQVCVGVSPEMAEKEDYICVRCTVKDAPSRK
In short: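 KDM5BΔAP (200 nM final) in 50 mM HEPES pH 7.5, 0.01% Tween-20 was preincubated 10 min at RT with compound over a concentration range. Substrate mix (H3K4me3 12.5 µM, α-KG 25 µM, Fe²⁺, ascorbate, NAD⁺, FDH) was added, and NADH fluorescence change over 30 min gave dose-response curves.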
For `Cc1c(NC(=O)C(F)(F)F)ccc2nc3c(=O)n(C)c(=O)n(C)c3nc12`, the Potency was inconclusive: 7.94 µM [inhibitor, partial curve, poor fit].
For `COc1ccc(-n2ncc(C(=O)NCCCN3CCCCC3)c2C2CCN(C(=O)OC(C)(C)C)CC2)cc1`, the Potency was “inactive”.
With `CCOCCCNC(=O)Cn1cc2c(n1)-c1c(oc(C(=O)N3CCCC3)c1C)CC2` the Potency was inconclusive: 2.51 µM [inhibitor, full curve, poor fit].
With `COc1c(Cl)cc(Cl)cc1/C=C(\C#N)c1nc(-c2ccc(Cl)cc2)cs1` the Potency was inconclusive: 2.51 µM [inhibitor, full curve, poor fit].
In the case of `O=C(COCC1CCCO1)N1CCc2onc(-c3ccc4c(c3)OCO4)c2C1` (stereo not drawn), the Potency is reported as active: 22.4 µM.
In the case of `Cc1cccc(NC(=O)c2oc3ccc(S(=O)(=O)N(C)C4CCCCC4)cc3c2C)c1C`, the activity change, negative = inhibition is reported as inconclusive: -30.7% [inhibitor].
`CCCCN(Cc1ccco1)C(=O)c1cc2c(s1)-c1c(C)cccc1OC2` was tested, and the Potency was inconclusive: 35.5 µM [inhibitor, partial curve, poor fit].
For `CN(C)c1cccc(-c2cnc(Nc3cccnc3)c3c2CCO3)c1`, the Potency was inconclusive: 39.8 µM [inhibitor, partial curve, poor fit].
With `CCOC(=O)c1ccccc1NC(=O)c1nn(-c2ccc(C)cc2)c(=O)n(C)c1=O` the Potency was inconclusive: 12.6 µM [inhibitor, partial curve, poor fit].
`Cc1ccc(S(=O)(=O)c2c[nH]c3cc4c(cc3c2=O)OCO4)cc1` was tested, and the Potency was inconclusive: 25.1 µM [inhibitor, partial curve, poor fit].
In the case of `COc1ccc(C(=O)N2C[C@@H]3C[C@H](C2)c2ccc(NS(=O)(=O)c4cccc(C(F)(F)F)c4)c(=O)n2C3)cc1`, the Potency is reported as “inactive”.
For `COc1ccccc1CCC(=O)N1CCCC2(C1)Nc1cccnc1NC2=NC1CCCC1` (stereo not drawn), the Potency was inconclusive: 14.1 µM [inhibitor, partial curve, poor fit].
`O=C(CCN=C1NS(=O)(=O)c2ccccc21)Nc1cc(Cl)cc(Cl)c1` was tested, and the Potency was “inactive”.
With `COc1cccc(C(=O)Nc2ccc3oc(-c4ccccc4Cl)nc3c2)c1` the Potency was inconclusive: 25.1 µM [inhibitor, partial curve, poor fit].
`CCn1c(=O)cc(SCC(=O)Nc2cc(Cl)ccc2OC)c2ccccc21` was tested, and the Potency was inconclusive: 17.8 µM [inhibitor, single point].
In the case of `Cc1ccc(C(=O)NC2CCN(c3cc(-c4cccs4)[nH]n3)CC2)cc1F`, the Potency is reported as inconclusive: 25.1 µM [inhibitor, partial curve, poor fit].
`CC(C)c1ccc(-c2nc3c([nH]2)c(=O)n(C)c(=O)n3C)cc1` was tested, and the Potency was “inactive”.
With `CN1CC(=O)N(C2CCNCC2)Cc2c1ncnc2N1CCC(N2CCOCC2)CC1` the Potency was inconclusive: 50.1 µM [inhibitor, partial curve].
For `Cc1c(CC(=O)O)c(=O)oc2cc(OCc3ccc(F)cc3)ccc12`, the Potency was inconclusive: 28.2 µM [inhibitor, partial curve, poor fit].
For `CCOc1ccc(-c2nnc(SCC(=O)Oc3ccccc3)o2)cc1`, the Potency was inconclusive: 35.5 µM [inhibitor, single point].
In the case of `CN(CC(=O)Nc1ccc(Nc2ccccc2)cc1)C1=NS(=O)(=O)c2ccccc21`, the Potency is reported as “inactive”.
With `CN(Cc1ccc(-c2ccc(Cl)cc2)o1)C(=O)CSc1nnc(C2CC2)n1C` the Potency was inconclusive: 8.91 µM [inhibitor, partial curve, poor fit].
For `COCCNC(=O)c1nc2nc(-c3ccccc3)c(Cl)cc2n1C`, the Potency was active: 39.8 µM.
For `Cc1ccc(C(=O)COC(=O)c2ccc(O)cc2)s1`, the Potency was “inactive”.
In the case of `COc1ccc(-n2ccnc(NCc3cccs3)c2=O)cc1`, the Potency is reported as inconclusive: 15.8 µM [inhibitor, partial curve, poor fit].
In the case of `CCn1cc(CN2CCC([C@@H]3CNC[C@H]3CO)CC2)c2cc(OC)ccc21`, the Potency is reported as inconclusive: 15.8 µM [inhibitor, partial curve].
With `Cc1ccc(-c2cc(C(=O)N3CCCCCC3)c3ccccc3n2)o1` the Potency was inconclusive: 25.1 µM [inhibitor, partial curve, poor fit].
With `Nc1nc2c(s1)C(c1ccccc1OCc1ccccc1Cl)CC(=O)N2` (stereo not drawn) the Potency was inconclusive: 11.2 µM [inhibitor, partial curve, poor fit].
For `O=C(CC1CCOCC1)NCC1CCN(Cc2ccccc2F)CC1`, the Potency was “inactive”.
In the case of `COCCn1ccc2c(C3=CCOCC3)nc(-c3cccc(N[S+](C)(=O)[O-])c3)cc21`, the Potency is reported as “inactive”.
In the case of `CCOc1ccc(C(C(=O)NCC2CCCO2)N(Cc2ccccc2)C(=O)c2snc(C(N)=O)c2N)cc1` (stereo not drawn), the Potency is reported as inconclusive: 25.1 µM [inhibitor, single point].
`O=C(c1cccnc1)N1CCC(c2nnc3n2C(C(=O)N2CCN(c4ncccn4)CC2)CC3)CC1` (stereo not drawn) was tested, and the Potency was “inactive”.
With `CCCNC(=O)Cn1ncc2c3ccccc3n(CCC)c2c1=O` the Potency was inconclusive: 35.5 µM [inhibitor, partial curve, poor fit].
With `COC(=O)c1ccoc1COC(=O)CCc1ccc(-c2ccccc2)o1` the Potency was inconclusive: 10 µM [inhibitor, partial curve, poor fit].
`CN(CC1CCOCC1)C(=O)CC1C(=O)NCCN1Cc1ccc(F)c(F)c1` (stereo not drawn) was tested, and the Potency was inconclusive: 31.6 µM [inhibitor, single point].
In the case of `COc1cccc(-c2nn(C)c3sc(C(=O)NCCc4cccc(C)c4)cc23)c1`, the Potency is reported as inconclusive: 31.6 µM [inhibitor, partial curve, poor fit].
With `[N-]=C=C1C(=S)NC(=O)[C@H]([n+]2ccccc2)[C@H]1c1ccc(Cl)cc1` the Potency was inconclusive: 35.5 µM [inhibitor, partial curve, poor fit].
For `COCCNc1ncccc1-c1noc([C@@H]2CCCN2Cc2ccc(C(=O)O)cc2)n1`, the Potency was active: 35.5 µM.
With `CCc1cccc(NC(=O)CSc2n[nH]c(-c3ccccc3Cl)n2)c1` the Potency was inconclusive: 17.8 µM [inhibitor, partial curve, poor fit].
In the case of `O=C(Nc1ccc2nc(SCCOc3ccccc3Cl)sc2c1)c1ccco1`, the Potency is reported as inconclusive: 39.8 µM [inhibitor, partial curve, poor fit].
With `CCn1ncc(NC(=O)Cn2ncc3cc(-c4cccc(C#N)c4)ccc32)n1` the Potency was inconclusive: 5.62 µM [inhibitor, single point].
`CCN(CC)Cc1ccc2c(c1)CN(C(=O)Nc1cccc(F)c1)CCO2` was tested, and the Potency was “inactive”.
`O=C(O)C[C@@H]1CCN(C(=O)Cc2ccccc2)C[C@@H]1CCN(CCN1CCOCC1)c1ccccc1` was tested, and the Potency was inconclusive: 15.8 µM [inhibitor, partial curve].
In the case of `Cc1cc(N2CCN(S(=O)(=O)c3ccc(C(F)(F)F)cc3)CC2)nc(C(C)C)n1`, the Potency is reported as “inactive”.
`Cc1oc2ccn(Cc3ccc(F)cc3)c(=O)c2c1C(=O)NCc1cc(F)ccc1F` was tested, and the Potency was inconclusive: 20 µM [inhibitor, partial curve].
`O=[S+]([O-])(NCC1CN(Cc2ccc3[nH]ccc3c2)CC12CN(c1ccccc1)C2)c1ccccc1` (stereo not drawn) was tested, and the Potency was inconclusive: 35.5 µM [inhibitor, partial curve, poor fit].
`O=C1CCN(S(=O)(=O)c2ccccc2)CCCN(Cc2ccc3cc[nH]c3c2)CCN1` was tested, and the Potency was inconclusive: 31.6 µM [inhibitor, partial curve, poor fit].
In the case of `CCCn1cc(S(=O)(=O)c2ccccc2)c(=O)c2cc(F)c(N3CCCCCC3)cc21`, the Potency is reported as inconclusive: 35.5 µM [inhibitor, partial curve, poor fit].
In the case of `CCCc1cc(=O)[nH]c(SC(C)C(=O)NC)n1` (stereo not drawn), the Potency is reported as “inactive”.
For `CCOC(=O)/C(C#N)=C/c1ccc(-c2ccccc2)o1`, the Potency was inconclusive: 31.6 µM [inhibitor, single point].
In the case of `COc1cc(/C=C/c2ccc3ccccc3n2)cc(OC)c1O`, the Potency is reported as inconclusive: 12.6 µM [inhibitor, single point].
`Cc1ccc(-n2ncc3c(NC4CCCC4)ncnc32)cc1` was tested, and the Potency was inconclusive: 31.6 µM [inhibitor, partial curve, poor fit] and inconclusive: 10 µM [inhibitor, partial curve, poor fit].
For `CCOc1cc(/C=C/c2nc3ccccc3s2)ccc1O`, the Potency was inconclusive: 25.1 µM [inhibitor, partial curve, poor fit].
`Cn1c(=O)c2nc3ccc(NC(=O)C(F)(F)F)cc3nc2n(C)c1=O` was tested, and the Potency was inconclusive: 28.2 µM [inhibitor, partial curve, poor fit].
`Cc1ccc(SCC(=O)Nc2c(Br)cnn2C)cc1` was tested, and the Potency was inconclusive: 39.8 µM [inhibitor, single point].
For `Clc1ccc(CNc2ncncc2-c2nc(-c3ccccc3)no2)cc1`, the Potency was “inactive”.
For `Cc1ccc(NC(=O)CN2C(=O)CSc3ccc(S(=O)(=O)N(C)C)cc32)c(C)c1`, the activity change, negative = inhibition was inconclusive: -33.3% [inhibitor].
In the case of `CC1CCCC(C)N1NC(=S)NCc1ccccc1` (stereo not drawn), the Potency is reported as “inactive”.
For `Cc1cccc2c(C(=O)NCc3cccs3)cc(-c3cccnc3)nc12`, the Potency was inconclusive: 25.1 µM [inhibitor, single point].
In the case of `O=C(/C=C/c1ccccc1Cl)Nc1ccccc1-c1ccccc1`, the Potency is reported as “inactive”.
With `Cc1ccc(CNCc2ccc(-c3cccc(C(=O)O)c3)o2)cc1` the Potency was inconclusive: 25.1 µM [inhibitor, single point].
In the case of `CN(Cc1cccn1C)C(=O)c1cccc(Cl)c1`, the Potency is reported as “inactive”.
`O=C(Cn1ccn2nc(-c3ccc(F)cc3)c(CO)c2c1=O)Nc1ccc(F)cc1F` was tested, and the Potency was inconclusive: 28.2 µM [inhibitor, partial curve, poor fit].
